# The list shows a part of the results. Rule as the data show it: active = 3.2 or more and inactive = the rest. Most of these values are background signal.
# Target: SHP2 C-SH2 domain E139D
# Experiment: enrichment score (SH2-bound / input frequency) (ratio); bacterial display of known human phosphotyrosine sites (pTyr-Var adds point mutants) read by sequencing; higher = stronger binding; tyrosines were phosphorylated by kinases first
# Conditions: peptide library: pTyr-Var
# 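Also: displayed peptides selected on beads carrying the immobilized SH2 domain, with library peptides lacking any tyrosine serving as negative controls.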
row,Binder,enrichment score
1,SQSAKYDMAED [TTC21B_Y1213_I1208S],inactive: 0.556
2,TEVIWYKGDEE [TTN_Y13423_A13418T],inactive: 0.96
3,ANNEFYFQVCA [TTN_Y18998_R19000Q_YF],inactive: 0.559
4,CHKCTYKVTGL [TTN_Y21853],active: 4.63
5,LANNEYFFQVC [TTN_Y18997_R19000Q_YF],inactive: 0.722
6,RGEEPYTKKAL [TTC21B_Y160_K157E],inactive: 0.623
7,LANNEYFFRVC [TTN_Y18997_YF],inactive: 0.987
8,KPGVNYFFQVS [TTN_Y28165_R28168Q_YF],inactive: 1.29
9,AKIDGYIISFR [TTN_Y19760_T19762I_YF],inactive: 0.978
10,ANNEYYFRVCA [TTN_Y18998],inactive: 0.709
11,DLHGIYQKLVI [TTN_Y21998_R21995H],inactive: 1.59
12,LANNEYYFQVC [TTN_Y18997_R19000Q],inactive: 0.907
13,ANNEYYFQVCA [TTN_Y18998_R19000Q],inactive: 0.894
14,GRRGQYVMPSE [TTC7A_Y396_L399P],inactive: 0.434
15,KPGVNYFFRVS [TTN_Y28165_YF],inactive: 1.07
16,PGVNFYFQVSA [TTN_Y28166_R28168Q_YF],inactive: 1.09
17,LAVNPYGPPDP [TTN_Y22579],inactive: 0.84
18,AKIDGYIISYR [TTN_Y19760_T19762I],inactive: 1.12

# Target: SHP2 C-SH2 domain wild-type
# Experiment: as above
# Conditions: peptide library: pTyr-Var
row,Binder,enrichment score
1,SQSAKYDMAED [TTC21B_Y1213_I1208S],inactive: 0.423
2,TEVIWYKGDEE [TTN_Y13423_A13418T],inactive: 0.462
3,ANNEFYFQVCA [TTN_Y18998_R19000Q_YF],inactive: 0.813
4,CHKCTYKVTGL [TTN_Y21853],active: 4.04
5,LANNEYFFQVC [TTN_Y18997_R19000Q_YF],inactive: 1.09
6,RGEEPYTKKAL [TTC21B_Y160_K157E],inactive: 0.558
7,LANNEYFFRVC [TTN_Y18997_YF],inactive: 1.15
8,KPGVNYFFQVS [TTN_Y28165_R28168Q_YF],inactive: 1.33
9,AKIDGYIISFR [TTN_Y19760_T19762I_YF],inactive: 0.945
10,ANNEYYFRVCA [TTN_Y18998],inactive: 0.731
11,DLHGIYQKLVI [TTN_Y21998_R21995H],inactive: 1.17
12,LANNEYYFQVC [TTN_Y18997_R19000Q],inactive: 1.39
13,ANNEYYFQVCA [TTN_Y18998_R19000Q],inactive: 1.14
14,GRRGQYVMPSE [TTC7A_Y396_L399P],inactive: 0.412
15,KPGVNYFFRVS [TTN_Y28165_YF],inactive: 0.958
16,PGVNFYFQVSA [TTN_Y28166_R28168Q_YF],inactive: 2.23
17,LAVNPYGPPDP [TTN_Y22579],inactive: 0.758
18,AKIDGYIISYR [TTN_Y19760_T19762I],inactive: 1.07

# Target: SHP2 N-SH2 domain L43F
# Experiment: as above
# Conditions: peptide library: pTyr-Var
row,Binder,enrichment score
1,SQSAKYDMAED [TTC21B_Y1213_I1208S],inactive: 0.456
2,TEVIWYKGDEE [TTN_Y13423_A13418T],inactive: 0.759
3,ANNEFYFQVCA [TTN_Y18998_R19000Q_YF],inactive: 0.569
4,CHKCTYKVTGL [TTN_Y21853],active: 4.37
5,LANNEYFFQVC [TTN_Y18997_R19000Q_YF],inactive: 0.911
6,RGEEPYTKKAL [TTC21B_Y160_K157E],inactive: 0.615
7,LANNEYFFRVC [TTN_Y18997_YF],inactive: 1.16
8,KPGVNYFFQVS [TTN_Y28165_R28168Q_YF],inactive: 1.13
9,AKIDGYIISFR [TTN_Y19760_T19762I_YF],inactive: 0.96
10,ANNEYYFRVCA [TTN_Y18998],inactive: 0.614
11,DLHGIYQKLVI [TTN_Y21998_R21995H],inactive: 1.28
12,LANNEYYFQVC [TTN_Y18997_R19000Q],inactive: 0.809
13,ANNEYYFQVCA [TTN_Y18998_R19000Q],inactive: 0.986
14,GRRGQYVMPSE [TTC7A_Y396_L399P],inactive: 0.363
15,KPGVNYFFRVS [TTN_Y28165_YF],inactive: 0.968
16,PGVNFYFQVSA [TTN_Y28166_R28168Q_YF],inactive: 1.51
17,LAVNPYGPPDP [TTN_Y22579],inactive: 0.818
18,AKIDGYIISYR [TTN_Y19760_T19762I],inactive: 1.09

# Target: SHP2 N-SH2 domain T42A
# Experiment: as above
# Conditions: peptide library: pTyr-Var
row,Binder,enrichment score
1,SQSAKYDMAED [TTC21B_Y1213_I1208S],inactive: 0.449
2,TEVIWYKGDEE [TTN_Y13423_A13418T],inactive: 0.906
3,ANNEFYFQVCA [TTN_Y18998_R19000Q_YF],inactive: 0.438
4,CHKCTYKVTGL [TTN_Y21853],active: 3.65
5,LANNEYFFQVC [TTN_Y18997_R19000Q_YF],inactive: 0.813
6,RGEEPYTKKAL [TTC21B_Y160_K157E],inactive: 0.477
7,LANNEYFFRVC [TTN_Y18997_YF],inactive: 0.851
8,KPGVNYFFQVS [TTN_Y28165_R28168Q_YF],inactive: 1.36
9,AKIDGYIISFR [TTN_Y19760_T19762I_YF],inactive: 1.01
10,ANNEYYFRVCA [TTN_Y18998],inactive: 0.76
11,DLHGIYQKLVI [TTN_Y21998_R21995H],inactive: 1.19
12,LANNEYYFQVC [TTN_Y18997_R19000Q],inactive: 1.22
13,ANNEYYFQVCA [TTN_Y18998_R19000Q],inactive: 0.807
14,GRRGQYVMPSE [TTC7A_Y396_L399P],inactive: 0.265
15,KPGVNYFFRVS [TTN_Y28165_YF],inactive: 0.82
16,PGVNFYFQVSA [TTN_Y28166_R28168Q_YF],inactive: 0.88
17,LAVNPYGPPDP [TTN_Y22579],inactive: 0.577
18,AKIDGYIISYR [TTN_Y19760_T19762I],inactive: 0.953

# Target: SHP2 N-SH2 domain T52S
# Experiment: as above
# Conditions: peptide library: pTyr-Var
row,Binder,enrichment score
1,SQSAKYDMAED [TTC21B_Y1213_I1208S],inactive: 0.363
2,TEVIWYKGDEE [TTN_Y13423_A13418T],inactive: 0.788
3,ANNEFYFQVCA [TTN_Y18998_R19000Q_YF],inactive: 0.579
4,CHKCTYKVTGL [TTN_Y21853],active: 4.03
5,LANNEYFFQVC [TTN_Y18997_R19000Q_YF],inactive: 0.884
6,RGEEPYTKKAL [TTC21B_Y160_K157E],inactive: 0.556
7,LANNEYFFRVC [TTN_Y18997_YF],inactive: 0.741
8,KPGVNYFFQVS [TTN_Y28165_R28168Q_YF],inactive: 1.41
9,AKIDGYIISFR [TTN_Y19760_T19762I_YF],inactive: 0.913
10,ANNEYYFRVCA [TTN_Y18998],inactive: 0.715
11,DLHGIYQKLVI [TTN_Y21998_R21995H],inactive: 1.22
12,LANNEYYFQVC [TTN_Y18997_R19000Q],inactive: 0.854
13,ANNEYYFQVCA [TTN_Y18998_R19000Q],inactive: 0.742
14,GRRGQYVMPSE [TTC7A_Y396_L399P],inactive: 0.243
15,KPGVNYFFRVS [TTN_Y28165_YF],inactive: 0.845
16,PGVNFYFQVSA [TTN_Y28166_R28168Q_YF],inactive: 0.999
17,LAVNPYGPPDP [TTN_Y22579],inactive: 0.791
18,AKIDGYIISYR [TTN_Y19760_T19762I],inactive: 1.08

# Target: SHP2 N-SH2 domain wild-type
# Experiment: as above
# Conditions: peptide library: pTyr-Var
row,Binder,enrichment score
1,SQSAKYDMAED [TTC21B_Y1213_I1208S],inactive: 0.163
2,TEVIWYKGDEE [TTN_Y13423_A13418T],inactive: 0.53
3,ANNEFYFQVCA [TTN_Y18998_R19000Q_YF],inactive: 1.04
4,CHKCTYKVTGL [TTN_Y21853],active: 3.45
5,LANNEYFFQVC [TTN_Y18997_R19000Q_YF],inactive: 1.67
6,RGEEPYTKKAL [TTC21B_Y160_K157E],inactive: 0.647
7,LANNEYFFRVC [TTN_Y18997_YF],inactive: 0.926
8,KPGVNYFFQVS [TTN_Y28165_R28168Q_YF],inactive: 1.25
9,AKIDGYIISFR [TTN_Y19760_T19762I_YF],inactive: 0.967
10,ANNEYYFRVCA [TTN_Y18998],inactive: 1.03
11,DLHGIYQKLVI [TTN_Y21998_R21995H],inactive: 1.27
12,LANNEYYFQVC [TTN_Y18997_R19000Q],inactive: 1.17
13,ANNEYYFQVCA [TTN_Y18998_R19000Q],inactive: 1.2
14,GRRGQYVMPSE [TTC7A_Y396_L399P],inactive: 0.353
15,KPGVNYFFRVS [TTN_Y28165_YF],inactive: 1.37
16,PGVNFYFQVSA [TTN_Y28166_R28168Q_YF],inactive: 1.84
17,LAVNPYGPPDP [TTN_Y22579],inactive: 0.941
18,AKIDGYIISYR [TTN_Y19760_T19762I],inactive: 1.34

# — the supplement of paper PMC10369915
